PubChem BioAssay AID875 (National Center for Advancing Translational Sciences (NCATS), 2007)
Where “and” joins values, the source holds several entries; their conditions need not be identical. Equal values may be shown once. The campaign covered roughly 75,000 compounds. About 35 (0.05%) were called active. Calls come from the whole dose curve; as a rule, active = well fitted inhibition curve with a large enough effect; inconclusive = small, poorly fitted or top-dose-only effect; inactive = no such curve, though single readings can be large or run the other way. Only a part is listed here, and it is no random draw. Some structures have more than one record in an assay (separate samples or runs), and their calls can disagree.

These compounds were tested against Breast cancer type 1 susceptibility protein (Homo sapiens) (UniProt P38398) (assay: qHTS Assay for Inhibitors of BRCT-Phosphoprotein Interaction (Green Fluorophore)). Settings: BRCA1 BRCT-phosphopeptide binding, green fluorescence polarization; series mostly up to 76.9 µM; activity change, negative = inhibition: at the top concentration.
Experimental: NIH Molecular Libraries Screening Centers Network [MLSCN]
NIH Chemical Genomics Center [NCGC]
PI Name: Natarajan, Amarnath; University of Texas
A complex of BRCT (C-terminal portion of BRCA1, MW ~35 kDa, His-tagged) and fluorescently labeled pBACH1 phosphorylated 10 aa peptide fragment of BACH1, a helicase implicated in DNA repair, is incubated with library members. Inhibitors of BRCT-pBACH1 binding are detected by a decrease in the fluorescence polarization (FP) of the fluorophore. In order to minimize the effect of fluorescence artifacts and to increase the overall robustness of the screen, the compound library members were incubated in separate reactions with fluorescein labeled probe-protein complexes. Protein and labeled probes were supplied by Dr. Amarnath Natarajan, Department of Pharmacology and Toxicology, University of Texas Medical Branch Galveston, TX.
Assay Buffer: 16mM Na2HPO4, 4 mM NaH2PO4, 150 mM NaCl, 1 mM EDTA, 1 mM DTT, 0.02% NaN3, and 0.01% Tween 20 at pH 7.3.
100 nM labeled decapeptide/250 nM protein in columns 1, 2, 5 - 48. Titration of unlabeled decapeptide control (from 10 mM, then 1:2 dilution in duplicate) pin-transferred to column 2, rows 1 to 16. Column 1 is neutral.
Three uL of reagents were dispensed to 1536-well Greiner black solid-bottom plates. Compounds and controls (23 nL) were transferred
via Kalypsys PinTool. The plates were incubated for 12 min at room temperature, and then read on ViewLux (Perkin-Elmer) High throughput CCD imager using FITC for the fluorescein-labeled decapeptide probe polarization filter sets. During dispense, reagent bottles were kept submerged into 4 deg C water bath and all liquid lines were covered with aluminum foil to minimize probe and protein degradation. All screening operations were performed on a Kalypsys robotic system (Kalypsys, Inc., San Diego, CA) containing one RX-130 and two RX-90 anthropomorphic robotic arms. The timing and order of assay plates passing through the screening system were adjusted such that each compound library plate was assayed against the fluorescein- and rhodamine-labeled assay systems at immediately adjacent time points.
Potency is the fitted concentration of half-maximal effect.
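Throughout, for activity change, negative = inhibition: plate controls were peptide without protein for full effect.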

Chain of UniProt P38398 (P38398 whole entry, looked up): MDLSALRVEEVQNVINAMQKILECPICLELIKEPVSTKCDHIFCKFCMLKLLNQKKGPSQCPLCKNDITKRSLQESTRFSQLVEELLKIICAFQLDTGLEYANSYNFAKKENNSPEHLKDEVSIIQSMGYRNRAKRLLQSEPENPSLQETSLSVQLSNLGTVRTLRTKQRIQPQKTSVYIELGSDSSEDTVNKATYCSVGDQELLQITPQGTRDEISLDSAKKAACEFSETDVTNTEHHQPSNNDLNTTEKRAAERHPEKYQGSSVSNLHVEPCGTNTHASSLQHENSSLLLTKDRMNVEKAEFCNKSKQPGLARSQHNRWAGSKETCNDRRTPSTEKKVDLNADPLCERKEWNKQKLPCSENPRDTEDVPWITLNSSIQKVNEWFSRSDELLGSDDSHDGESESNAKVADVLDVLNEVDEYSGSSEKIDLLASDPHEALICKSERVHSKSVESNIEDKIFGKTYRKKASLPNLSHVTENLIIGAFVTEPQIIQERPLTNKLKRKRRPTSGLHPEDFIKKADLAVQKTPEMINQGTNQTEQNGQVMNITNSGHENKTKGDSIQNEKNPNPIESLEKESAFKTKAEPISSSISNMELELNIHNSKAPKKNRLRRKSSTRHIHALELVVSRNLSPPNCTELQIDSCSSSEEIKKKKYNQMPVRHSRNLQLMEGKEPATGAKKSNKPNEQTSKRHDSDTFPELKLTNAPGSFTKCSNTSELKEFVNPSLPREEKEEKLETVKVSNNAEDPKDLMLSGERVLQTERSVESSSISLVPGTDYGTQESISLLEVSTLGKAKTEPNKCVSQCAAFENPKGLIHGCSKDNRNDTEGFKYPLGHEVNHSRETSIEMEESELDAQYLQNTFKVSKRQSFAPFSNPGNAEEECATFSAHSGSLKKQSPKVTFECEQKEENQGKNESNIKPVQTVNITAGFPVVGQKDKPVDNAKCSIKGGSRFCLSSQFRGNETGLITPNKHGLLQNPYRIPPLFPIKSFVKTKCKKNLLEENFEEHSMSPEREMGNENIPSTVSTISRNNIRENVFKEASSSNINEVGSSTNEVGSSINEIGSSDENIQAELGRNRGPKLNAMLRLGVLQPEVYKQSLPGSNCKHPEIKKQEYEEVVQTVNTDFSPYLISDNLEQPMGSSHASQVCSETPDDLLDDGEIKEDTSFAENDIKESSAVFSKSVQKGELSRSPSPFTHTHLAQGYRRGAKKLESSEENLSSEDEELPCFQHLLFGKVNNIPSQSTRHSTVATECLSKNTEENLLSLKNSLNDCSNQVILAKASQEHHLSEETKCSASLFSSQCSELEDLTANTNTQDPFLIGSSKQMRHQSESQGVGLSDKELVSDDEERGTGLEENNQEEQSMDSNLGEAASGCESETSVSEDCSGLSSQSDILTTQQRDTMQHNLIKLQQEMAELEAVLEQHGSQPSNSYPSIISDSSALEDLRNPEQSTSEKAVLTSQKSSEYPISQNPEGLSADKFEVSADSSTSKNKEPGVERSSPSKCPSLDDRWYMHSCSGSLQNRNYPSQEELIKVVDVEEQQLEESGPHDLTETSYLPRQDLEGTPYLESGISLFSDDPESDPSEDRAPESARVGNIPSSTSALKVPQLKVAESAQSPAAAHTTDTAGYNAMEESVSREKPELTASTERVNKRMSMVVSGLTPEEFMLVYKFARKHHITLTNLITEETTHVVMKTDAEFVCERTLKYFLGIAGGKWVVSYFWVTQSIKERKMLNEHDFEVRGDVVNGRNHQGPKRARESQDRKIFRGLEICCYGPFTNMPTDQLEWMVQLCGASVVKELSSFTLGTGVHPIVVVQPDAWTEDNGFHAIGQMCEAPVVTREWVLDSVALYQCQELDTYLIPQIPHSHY

Row | Compound | activity change, negative = inhibition | Potency
1 | CN(C)[C@@H]1C(=O)C(C(N)=O)=C(O)[C@]2(O)C(=O)C3=C(O)c4c(O)cccc4[C@@](C)(O)[C@H]3[C@H](O)[C@@H]12 | inactive: 32.1% [at 34.4 µM] | 
2 | CN(C)[C@@H]1C(=O)C(C(N)=O)=C(O)[C@@]2(O)C(=O)C3=C(O)c4c(O)cccc4[C@@](C)(O)[C@H]3[C@H](O)[C@@H]12 | inactive: 0.88% | 
3 | N#CC1=C(N)Oc2n[nH]c(-c3cccs3)c2C1c1ccco1 (centres undefined) | inactive: 56.1% | 
4 | N#C/C(=C\c1ccc(O)c(O)c1)C(N)=S | inactive | 
5 | O=c1[nH]c(=O)n(Cc2ccccc2)c(O)c1C=NCCCn1ccnc1 | inactive: 39.4% | 
6 | COc1ccc2[nH]cc(C3=CCNCC3)c2c1 | inactive: 44.7% | 
7 | CC[n+]1c(-c2ccccc2)c2cc(N)ccc2c2ccc(N)cc21 | inactive: -5.09% | 
8 | COc1cc2ccccc2c2cc([N+](=O)[O-])oc12 | inactive: 56% [at 15.4 µM] | 
9 | CN(C)c1ccc(/C=C2\CCCN=C2c2cccnc2)cc1 | inactive: 238% | 
10 | CN(C)[C@H]1C(=O)C(C(N)=O)=C(O)[C@]2(O)C(=O)C3=C(O)c4c(O)cccc4[C@@](C)(O)[C@H]3C[C@@H]12 | inactive: 0.537% [at 34.4 µM] | 
11 | C[n+]1c2cc(N)ccc2cc2ccc(N)cc21 |  | active: 1.26 µM
12 | O=C(O)c1ccccc1-c1c2cc(Br)c(=O)cc-2oc2[c]([Hg])c(O)c(Br)cc12 |  | active: 2 µM and active: 794 nM
13 | O=C(Cn1ncc2c3ccccc3n(Cc3cccc(Cl)c3)c2c1=O)N1CCC2(CC1)OCCO2 | inactive: 44.2% | 
14 | CC1=NCCc2c1[nH]c1cc(O)ccc21 | inactive: -15% [at 3.08 µM] | 
15 | CN(N=O)c1ccc(O)c(O)c1 |  | active: 10 µM
16 | CCC(=NC1CC1)c1c(O)n(C2CCCCC2)c(=O)[nH]c1=O | inactive: 53.2% | 
17 | CN(C)C1C(=O)C(C(N)=O)=C(O)[C@@]2(O)C(=O)C3=C(O)c4c(O)cccc4[C@@](C)(O)C3C[C@@H]12 (some centres undefined) | inactive: 1.08% | 
18 | CN(C)C1C(=O)C(C(N)=O)=C(O)[C@@]2(O)C(=O)C3=C(O)c4c(O)cccc4[C@](C)(O)C3C(O)C12 (some centres undefined) | inactive: -0.0095% [at 3.08 µM] | 
19 | CN(C)C1C(=O)C(C(N)=O)=C(O)[C@@]2(O)C(=O)C3=C(O)c4c(O)cccc4[C@@](C)(O)C3CC12 (some centres undefined) | inactive: -9.96% [at 3.08 µM] | 
